Several values for one entry are separate records, joined by “and”; a condition that tells them apart may be missing. Equal values may be shown once. The list shows a part of the results. Further columns of the screen follow, without active or inactive calls.

Common to all, as to test: Primary Screen for Target Class Profiling of Small Molecule Inhibitors of Methyltransferases
Assay [1] has as its target Glycine N-methyltransferase (Homo sapiens) (UniProt Q14749). The note with it: purified enzyme, MTase-Glo SAH luminescence; measured here: GNMT inhibition; at 40 µM; stronger effect = lower value. In outline: (§1)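 Each enzyme was assayed with SAM and its substrate. SAH formation detected by MTase-Glo luminescence; single-point 40 uM screen[…].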
Assay [2] addresses Guanidinoacetate N-methyltransferase (Homo sapiens) (UniProt Q14353). The note with it: purified enzyme, MTase-Glo SAH luminescence; measured here: GAMT inhibition; at 40 µM; stronger effect = lower value. The procedure, abridged: as §1
The target in assay [3] is Histamine N-methyltransferase (Homo sapiens) (UniProt P50135). The note with it: purified enzyme, MTase-Glo SAH luminescence; measured here: HNMT inhibition; at 40 µM; stronger effect = lower value. In outline: as §1
In assay [4] the target is Nicotinamide N-methyltransferase (Homo sapiens) (UniProt P40261). The note with it: purified enzyme, MTase-Glo SAH luminescence; measured here: NNMT inhibition; at 40 µM; stronger effect = lower value. In outline:
as §1

Assay [5] addresses Phenylethanolamine N-methyltransferase (Homo sapiens) (UniProt P11086). The note with it: purified enzyme, MTase-Glo SAH luminescence; measured here: PNMT inhibition; at 40 µM; stronger effect = lower value. In outline:
as §1
On the % scale 0 is the no-effect control and ±100 the full control effect.

For the compound `CC1CCN(Cc2nnnn2CC(=O)N(C)Cc2ccccn2)CC1`, the activity change, negative = inhibition in assay [1] is -5.15%; in assay [2] it was -0.666%; in assay [3], -0.369%; in assay [4] it was -3.02%; in assay [5], 3.44%.
The matching figures for `COc1cc([C@H]2OC[C@](O)(Cc3ccc(O[C@@H]4O[C@H](CO)[C@@H](O)[C@H](O)[C@H]4O)c(OC)c3)[C@@H]2CO)ccc1O`: 2.08%, 6.95%, 11.1%, -4.19% and 5.51%.
The matching figures for `CCCn1c(=O)c2ccc(C(=O)NC3CCCCC3)cc2n2c(=O)n(CC(=O)NCc3ccccc3)nc12`: 7.91%, 0.55%, 10.9%, 3.63% and 6.86%.
For `CCOc1ccc(CN2C(=O)c3ccc(-c4ccco4)n3CC2(C)C(=O)NCCC(C)C)cc1` (stereo not given) the same measures were -0.202%, 0%, 7.31%, 5.91% and 2.93%.
With `COc1cccc(N2C(=O)NC(=NC3CCCCC3)C23CCCN(CC2CCCCC2)C3)c1` (stereo not given), the activity change, negative = inhibition is -21.1% in assay [1]; 0.368% in assay [2]; -18.3% in assay [3]; -72.2% in assay [4]; -4.77% in assay [5].
For `OCCN1CCN(CCCN2c3ccccc3C=Cc3ccccc32)CC1` the same measures were -4.18%, 10.5%, 4.17%, -4.03% and 8.32%.
For `C=C1C[C@]23C[C@H]1[C@@H](O)C[C@H]2[C@@]12C=C[C@H](O)[C@@](C)(C(=O)O1)[C@H]2[C@@H]3C(=O)O` the same measures were -1.7%, -4.8%, 6.01%, -16% and -6.37%.
For `Cc1cccc(CN2CCCn3nc(C(=O)NCCc4cccs4)cc3C2=O)c1` the same measures were -2.88%, 0%, 5.89%, -2.68% and 0.495%.
As for `CCCn1c(=O)c2ccc(Cl)cc2n2c(SCc3ccccc3F)nnc12`, the activity change, negative = inhibition in assay [1] is 3.58%; in assay [2], 0%; in assay [3], 10.3%; in assay [4], 2.66%; in assay [5], 4.71%.
The matching figures for `FC(F)(F)c1ccnc(N2CC[C@H](c3nnc(-c4ccncc4)o3)C2)n1`: -6.84%, -0.927%, -0.685%, -70.4% and 2.6%.
The matching figures for `COCC(=O)N1CCN(c2nc3ncccc3o2)CC1`: -5.49%, -7.99%, -4.54%, -15.5% and -7.83%.
Consider `CCC(C)NC(=O)c1ccc2c(=O)n(C)c3nn(CC(=O)Nc4ccc(C)c(F)c4)c(=O)n3c2c1` (stereo not given), for which the activity change, negative = inhibition stood at 0.831% in assay [1]; 7.27% in assay [2]; 1.17% in assay [3]; 0.749% in assay [4]; 3.81% in assay [5].
For `COc1cccc2c1NC(c1cccc3ccccc13)C1CC=CC21` (stereo not given) the same measures were -12.6%, -8.4%, -9.96%, -18.3% and -8.79%.
For `COc1cccc(Nc2c(C(N)=O)cnc3c(C)cc(S(=O)(=O)c4cccc(C(=O)N(C)C)c4)cc23)c1` the same measures were -21%, -11.9%, -13.1%, -41.6% and -10.7%.
For the compound `Cn1c(CN2CCN3C(=O)NC[C@H]3C2)nc2ccccc21`, the activity change, negative = inhibition in assay [1] is -4.95%; in assay [2], -5.57%; in assay [3], -1.81%; in assay [4] it was -12.3%; in assay [5], -19.9%.
For `Cc1ccc(CSc2nnc3n(Cc4ccccc4)c(=O)c4ccc(C(=O)NC(C)C)cc4n23)cc1` the same measures were 3.42%, 0.357%, 9.9%, 3.76% and 4.36%.
For `CSc1ccccc1C(=O)N1CCN(C(C)=O)CC(O)C1` (stereo not given) the same measures were -3.93%, -10%, -2.82%, -14.3% and -8.65%.
For `CCOCCCNC(=O)c1cc2n(n1)CC(C)(C(=O)NCc1ccc(C)cc1)N(C)C2=O` (stereo not given) the same measures were 6.02%, 0%, 5.1%, 6.23% and 4.6%.
For `C[C@]12CCC(=O)C=C1[C@@H](O)C[C@@H]1[C@@H]2[C@@H](O)C[C@@]2(C)[C@H]1CC[C@]2(O)C(=O)CO`, the activity change, negative = inhibition in assay [1] is 0.627%; in assay [2], 7.64%; in assay [3], 11.5%; in assay [4], -4.13%; in assay [5] it was 6.49%.
The matching figures for `CCOc1ccc(CCNC(=O)c2cc3n(n2)CC(C)(C(=O)NCc2ccc(C)cc2)N(C)C3=O)cc1` (stereo not given): 4.05%, 0%, 1.12%, 6.8% and 3.75%.
For `CN(CC(=O)Nc1ccc(F)cc1F)S(=O)(=O)c1ccc2[nH]c3c(c2c1)CCCC3` the same measures were -4.54%, 0.662%, -1.38%, -4.51% and -0.498%.
For the compound `CC(=O)CCCCn1c(=O)c2c(ncn2C)n(C)c1=O`, the activity change, negative = inhibition in assay [1] is -2.34% and -3.84%; in assay [2], -2.95% and 3.46%; in assay [3], 11.9% and -0.293%; in assay [4], -8.12% and -7.17%; in assay [5] it was 5.22% and 2.85%.
Regarding `C=Cc1ccc(CSc2nnc3n(CCC)c(=O)c4cc(F)ccc4n23)cc1`, the activity change, negative = inhibition in assay [1] was -4.76%; in assay [2], 4.55%; in assay [3] it was 10.7%; in assay [4], -7.87%; in assay [5], 4.37%.
For `CC(C)OCCCn1c(=O)c2cc(Cl)ccc2n2c(SCc3ccccc3)nnc12` the same measures were -4.21%, 0%, 3.8%, -6.97% and 3.05%.
With `CCOc1ccccc1CN1C(=O)c2cc3sccc3n2CC1(C)C(=O)NC1CCCCC1` (stereo not given), the activity change, negative = inhibition in assay [1] worked out at 4.84%; in assay [2], 0%; in assay [3], 5.84%; in assay [4] it was 8.49%; in assay [5], 4.17%.
For `COc1cccc(CCC(=O)N[C@@H]2CN(c3ncccn3)C[C@H]2CO)c1` the same measures were -1.24%, -4.01%, -0.081%, -17.2% and 11%.
For `COc1ccc(C(=O)N2CCCC(c3nc(-c4ccccc4)no3)CCNC(=O)CC2)cn1` (stereo not given) the same measures were -3.96%, -2.92%, 1.21%, -13.8% and -2.77%.
For `CCCNC(=O)C(CC)n1ccc2cc(S(=O)(=O)N3CCCCC3)ccc21` (stereo not given) the same measures were 3.37%, 5.29%, -2.55%, 5.6% and 2.06%.
Regarding `O[C@@H]1C[C@@H](c2nnc3n2CCN(C2CCCCC2)C3)N(Cc2cccnc2)C1`, the activity change, negative = inhibition in assay [1] was -1.56%; in assay [2], 0.44%; in assay [3], 2.43%; in assay [4], -5.1%; in assay [5] it was -2.04%.
For the compound `CN(C)c1ccc(C(=O)NC[C@H]2O[C@@H](CO)[C@@H](O)[C@H]2N(C)Cc2ccccc2)cc1`, the activity change, negative = inhibition in assay [1] was -1.9%; in assay [2] it was -2.9%; in assay [3], -0.567%; in assay [4] it was -5.89%; in assay [5], -0.57%.

The values above are taken from PubChem BioAssay AID1745853 (National Center for Advancing Translational Sciences (NCATS), 2022).
